In all, about 33,000 sequences were measured (“E-score (-0.5 to 0.5)”: median about -0.056, highest 2% from about 0.38 on). This is one part of the list.
Target: Stb4 (UniProt P50104)
Test: PBM E-score (8-mer binding enrichment) (E-score (-0.5 to 0.5)); higher = stronger / more preferred TF binding; most listed sequences are background and not binding sites
Conditions: protein concentration: 200 nM; construct: GST-DNA-binding domain
Method in brief: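 For each ungapped eight-base word taken together with its reverse complement, the Universal PBM Analysis Suite assigned an E-score. Binding data came from GST-tagged yeast transcription factors, applied at about 100-200 nM, on universal all-10-mer Agilent arrays made double-stranded by primer extension. Fluorescent anti-GST marked bound protein, and scans were normalised with masliner.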

Row | Sequence | PBM E-score
1 | CAGAACTG | -0.153
2 | AGCGGTAT | -0.0689
3 | AACGTGAG | -0.12
4 | AAGGCAGG | -0.281
5 | GGGTTCTA | 0.0192
6 | AAAGCTTG | -0.252
7 | AGTGAGGA | -0.324
8 | AAAAGCCC | 0.0263
9 | CCTTACCC | -0.0592
10 | AATACCCT | 0.0669
11 | CATACGAG | -0.155
12 | CTTCTATA | -0.252
13 | GCGCAGGA | -0.213
14 | AAATTCTA | -0.109
15 | ACGGATCA | 0.325
16 | CCGGTATA | 0.214
17 | AGCGGCGA | 0.131
18 | GCTTTGCC | -0.0276
19 | AGTCAATA | 0.0492
20 | GCTTCCAA | -0.147
21 | AAGGTTGT | -0.135
22 | CCCGCACA | 0.101
23 | TTAACTAA | 0.0246
24 | TCCCCACA | -0.384
25 | GCAAAGTA | -0.0302

Row | Sequence | PBM E-score
26 | AACCTGGG | -0.239
27 | CCGGTGGC | 0.175
28 | AAGACGGT | -0.173
29 | GCCTTCTA | -0.285
30 | AGCCTCAA | -0.206
31 | ACCTTATC | 0.0924
32 | AACTTCGT | -0.177
33 | CCCACCCG | 0.326
34 | GTTTTTGA | 0.0395
35 | ACCCAATG | -0.174
36 | ACGGCATC | 0.124
37 | ATGTACTC | -0.0791
38 | GTTGTGCA | -0.105
39 | TCAGCTCA | 0.0343
40 | CATCAATG | -0.0657
41 | CTGTTCAC | -0.243
42 | CACTGACA | -0.124
43 | AAAGTCTG | -0.366
44 | CTCCGGTA | 0.254
45 | ACAGGCAG | -0.204
46 | ACACCTGA | -0.0979
47 | AAGGAATC | -0.0415
48 | GTTAGCGA | -0.0707
49 | ATGCTTCC | 0.255
50 | ATTACCCG | 0.416

Row | Sequence | PBM E-score
51 | CTCCGCTC | 0.0335
52 | ACACGGCA | 0.111
53 | CGCTCTAC | -0.135
54 | ACTTTACA | -0.0156
55 | TATTGGAA | -0.215
56 | AGGCTCGG | 0.432
57 | CAGCGCAC | -0.152
58 | ATTGCCGG | 0.301
59 | CCCGACTA | 0.301
60 | CGGATAAA | 0.465
61 | GCAGGGGC | -0.187
62 | GTCTGATA | -0.0657
63 | AGAAACCG | 0.177
64 | AAAGTAGA | -0.141
65 | GATCGCTA | -0.119
66 | GCACTGGA | -0.312
67 | CTCAGGGA | -0.257
68 | GCCAATCC | 0.158
69 | CTCGACGA | -0.265
70 | CCTGCTCG | -0.0836
71 | ATGCGGCA | 0.0935
72 | GTCTAATA | -0.287
73 | TCGGGAAA | 0.443
74 | TATGATAA | 0.0382
75 | AAACGCAT | -0.17

Row | Sequence | PBM E-score
76 | ATTTGACA | -0.164
77 | CCATCCGA | 0.453
78 | ATAATCAA | 0.0376
79 | AGAGTGCC | -0.176
80 | GCAATTTA | 0.0475
81 | CGGCGGAG | 0.259
82 | CTAAGGGC | -0.283
83 | GTTTCCAA | -0.1
84 | ATGCGCAG | -0.112
85 | ATAGGATA | -0.00309
86 | AGTCCCTA | -0.179
87 | GGGTCAAA | 0.0949
88 | ACGTATAG | -0.186
89 | GACTAAAA | 0.111
90 | AACTTACC | 0.229
91 | CTAACAAC | 0.0404
92 | TAATTGGA | -0.139
93 | AAGTTTCG | 0.124
94 | AAGTGATA | -0.179
95 | ACCTCAAT | -0.192
96 | CGAATATA | 0.235
97 | CGATCAGA | -0.159
98 | AGTACTTG | -0.267
99 | CGGGCACA | 0.109
100 | GCCGATAA | 0.277

Row | Sequence | PBM E-score
101 | CTCCAGGA | -0.146
102 | AACATGTT | -0.00741
103 | CACGGAGA | 0.14
104 | TAAAATCA | 0.00279
105 | CGACCGCC | 0.03
106 | CGGGGCGC | 0.216
107 | ACGGCGGG | 0.17
108 | GGAGCAAA | 0.0302
109 | TTCAGAAA | -0.23
110 | CAAGCCTC | -0.159
111 | CCAAACCC | 0.0715
112 | AACAGGCC | 0.13
113 | ATGTAATG | -0.00629
114 | CGGGCGTC | 0.15
115 | CTCGATTA | -0.0752
116 | GAAAACTA | 0.143
117 | ATATGGCC | -0.0809
118 | AGCTAAAT | -0.176
119 | CGGAGAGC | 0.225
120 | GGAAACAC | 0.264
121 | ACGTGGCT | -0.135
122 | AGAGTTGC | 0.158
123 | GCAAGGCA | -0.253
124 | AACACACG | -0.18
125 | CATACACC | 0.178

Row | Sequence | PBM E-score
126 | TATGTTCA | -0.123
127 | AGGCTGCC | 0.0642
128 | AACGTTGA | -0.0385
129 | TGCACCAA | -0.363
130 | CAAGGGTA | -0.0729
131 | CGATTGTA | 0.104
132 | ATTGCCTC | -0.0917
133 | GCTCGCCA | -0.0156
134 | CATTTCAG | -0.13
135 | GCCGCAGA | 0.0341
136 | ACTGGTAA | 0.0321
137 | GCTCCCAA | -0.272
138 | AGCAGTTG | -0.046
139 | AAACGTGA | -0.218
140 | GTCCGCCA | -0.128
141 | TTGCTAAA | -0.017
142 | AATGCTTG | -0.0727
143 | GCAGATGC | -0.292
144 | GGCCACAC | -0.00989
145 | TCGTTGCA | -0.185
146 | CACAGGCG | -0.171
147 | AAGCCAAT | -0.0856
148 | TAACAAAA | -0.054
149 | ACATTGTA | -0.00506
150 | CACTCCAC | -0.154

Row | Sequence | PBM E-score
151 | AGACTCCT | -0.156
152 | TCACGAAA | -0.0978
153 | ATCTAGGC | -0.279
154 | CGCCGGCC | 0.265
155 | ACGCTTCG | 0.136
156 | CAACCTGC | 0.0732
157 | ACTACCGC | -0.0223
158 | ACCGCGGC | 0.193
159 | CCCTTCGG | 0.401
160 | AAGGCTCG | 0.0877
161 | TGCCTCAA | 0.0783
162 | AGACTCCC | -0.0278
163 | CGCGATCA | -0.0099
164 | CCTATTAC | -0.18
165 | GCGAATGA | 0.0949
166 | ACGTTTCT | -0.158
167 | AATCCAAC | -0.139
168 | CTCTCCAC | -0.347
169 | CACCTCTG | -0.221
170 | ACGACCCT | -0.138
171 | AGGTGGTA | -0.0275
172 | CGACGAAC | 0.156

— the supplement of paper PMC3334620
